# Assay results published in the supplement of paper PMC12217912.
# This is one part of the list. Sequences were assembled here from the parent chain. Inactive controls read about 0.05.
# B1: TEV protease; numbered along this chain (parent)
# chain: MGESLFKGPRDYNPISSSICHLTNESDGHTTSLYGIGFGPFIITNKHLFRRNNGTLVVQSLHGVFKVKDTTTLQQHLVDGRDMIIIRMPKDFPPFPQKLKFREPQREERICLVTTNFQTKSMSSMVSDTSCTFPSGDGIFWKHWIQTKDGQCGSPLVSTRDGFIVGIHSASNFTNTNNYFTSVPKNFMELLTNQEAQQWVSGWRLNADSVLWGGHKVFMVKPEEPFQPVKEATQL
# Variants of: B1
# Assay: raw area under fraction-flipped curve 0-4 h after induction (AUC4h, not background-subtracted), DNA-recorder readout of cleavage of the substrate (dimensionless); higher = more cleavage of the substrate by the protease variant
# Conditions: temperature: 34 °C; time window: 0-4 h after rhamnose induction
# 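Also: Bxb1 expression induced with 0.2% (w/v) L-rhamnose at OD600 near 0.5, cultures sampled hourly, flipped fraction per protease–substrate barcode pair counted by paired-end Illumina sequencing.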
Variant,area with substrate ENLYFLS,area with substrate ENLYFMS,area with substrate ENLYFRS,area with substrate ENLYFWS,area with substrate ENLYFES,area with substrate ENLYFFS,area with substrate ENLYFGS,area with substrate ENLYFIS,area with substrate ENLYFNS,area with substrate ENLYFPS
W199Q,0.0525,0.0853,0.0655,0.0413,–,–,–,–,–,–
S201Q,–,–,–,–,0.0607,0.0642,0.0585,0.0527,0.0485,0.0482
R106N,–,0.0806,0.0646,–,0.0701,0.0536,–,0.0605,0.0621,0.0699
P93K,–,–,–,–,0.085,–,–,–,–,–
G162V,–,–,–,–,–,–,0.0696,–,–,0.0606
G162N,–,–,–,–,–,–,–,0.0712,–,–
V229R,–,0.0786,0.0508,–,–,0.067,0.0613,–,0.04,–
F65V,0.0632,–,0.0631,–,–,–,–,–,–,–
T147S,–,–,0.0556,0.0571,–,0.0787,–,0.0605,0.0592,–
T132K,0.0527,0.0537,0.0549,–,–,–,–,–,–,0.061
T132N,–,–,0.0544,–,–,0.0592,–,0.0638,–,–
Q74P,–,–,–,0.0633,–,–,0.0619,–,–,–
T159K,0.0572,0.065,–,0.0431,–,0.0659,0.0635,–,–,0.0572
I110R,–,0.0617,0.0429,–,0.0488,0.0544,–,0.0551,0.0511,0.0627
F163M,–,–,–,–,–,–,–,–,0.0635,–
F163D,–,0.0772,–,–,–,–,–,0.0674,–,0.053
L211D,–,–,–,–,–,–,–,0.0523,–,–
L211I,–,–,–,0.0619,–,–,0.0728,–,–,0.053
G213T,0.0597,0.0604,0.0701,0.0531,0.1,0.0854,–,0.0598,–,–
S60G,–,0.0862,–,–,0.0606,–,–,0.0624,–,0.0622
W203D,–,0.0608,–,–,0.0522,0.0658,–,0.0565,–,0.0603

Variant,area with substrate ENLYFLS,area with substrate ENLYFMS,area with substrate ENLYFRS,area with substrate ENLYFWS,area with substrate ENLYFES,area with substrate ENLYFFS,area with substrate ENLYFGS,area with substrate ENLYFIS,area with substrate ENLYFNS,area with substrate ENLYFPS
L99K,–,–,0.0517,–,–,–,–,–,–,–
L99W,–,–,–,0.0298,–,–,–,0.0531,–,–
L99I,–,0.0634,0.0595,–,0.0254,0.0678,–,0.083,0.0591,–
L99H,–,0.0632,–,–,–,–,–,–,–,–
L99M,–,0.0624,–,0.0611,0.0521,0.0657,0.0571,0.0455,–,0.0792
F6N,–,–,0.0468,–,–,–,0.0874,0.0597,–,0.0533
F6A,–,0.054,0.067,0.0572,0.0645,–,–,0.0375,0.0459,0.0986
N172H,0.0483,0.058,0.113,–,–,0.0858,–,0.0726,–,–
N172W,–,–,–,–,–,–,0.0405,–,0.0759,–
N172L,–,–,–,–,–,0.0678,–,–,–,–
K185L,–,0.0659,0.0669,0.0395,0.0693,0.0642,0.0661,–,0.0732,–
E189Y,–,–,–,–,–,–,–,0.0668,–,–
S158E,0.0613,–,–,–,–,–,–,–,0.062,–
R51S,0.0687,0.0711,–,0.0855,–,–,0.0895,0.0481,0.069,0.0548
N186R,–,–,–,–,–,–,–,0.0789,–,–
N186H,–,–,–,0.0524,–,–,–,–,–,–
H143N,–,0.0563,–,–,0.0509,0.0624,–,0.0319,–,–
N206L,–,–,–,–,–,–,0.0605,–,–,–
N206P,–,0.076,–,0.0549,0.0793,–,–,0.0585,–,0.0736
T174E,0.0609,–,–,–,–,0.065,–,0.0506,–,–

# Same assay, conditions: temperature: 34 °C; time window: 0-4 h after rhamnose induction
Variant,area with substrate ENLYFSS,area with substrate ENLYFVS,area with substrate ENLYFHS,area with substrate ENLYFKS,area with substrate ENLYFTS,area with substrate ENLYFYS
S201Q,0.0588,0.0627,–,–,–,–
R106N,–,–,0.0565,0.0549,0.0692,–
G162V,0.0554,–,–,0.0487,–,–
G162N,–,–,–,–,0.0534,–
V229R,0.0484,–,0.0374,–,–,–
F65V,–,–,–,0.0517,–,0.0597
T147S,–,–,–,–,–,0.0586
T132K,–,–,–,0.0642,–,–
T132N,–,–,0.0486,0.0252,0.0453,0.0542
Q74P,–,–,–,–,0.0555,0.0566
T159K,–,–,0.0601,0.0342,0.0644,0.0471
F38E,–,–,–,0.0404,0.0535,–
I110R,0.0966,0.0439,0.0451,0.0452,–,–
F163M,–,–,–,–,0.053,–
L211I,–,0.0463,0.0493,0.0498,–,–
G213T,–,–,0.0696,0.0641,0.0582,0.0674
S60G,0.0669,–,–,0.051,0.0509,–
W203D,–,–,–,0.0792,0.0429,–

Variant,area with substrate ENLYFSS,area with substrate ENLYFVS,area with substrate ENLYFHS,area with substrate ENLYFKS,area with substrate ENLYFTS,area with substrate ENLYFYS
L99W,–,–,–,–,0.0429,–
L99I,–,–,0.0474,–,–,–
L99M,–,–,–,0.0572,0.0572,0.0497
F6N,–,–,0.0655,0.0577,0.0646,0.074
F6A,–,0.0712,–,–,0.0832,–
G2S,–,–,–,–,–,0.0579
N172H,–,0.0573,–,–,–,–
N172L,–,0.0551,–,–,–,–
K185L,0.077,0.0564,0.0755,–,0.0632,–
E189Y,–,0.0487,–,–,–,0.0528
S158E,–,0.0321,–,–,–,0.0476
D91E,–,–,–,0.0697,–,–
V210E,–,0.0572,–,–,–,0.0466
N186R,–,–,–,0.0668,–,0.0675
H143N,0.046,–,–,–,0.0505,–
N206P,–,–,–,0.0828,–,–
T174E,–,–,–,–,0.0577,0.05
